Reference: patent publication US20190321456A1 (NATIONAL HEALTH RESEARCH INSTITUTES, published 2019)

Target: T1, recombinant ovalbumin (OVA) (Gallus gallus (Chicken), UniProt P01012 1-386)
T1 sequence: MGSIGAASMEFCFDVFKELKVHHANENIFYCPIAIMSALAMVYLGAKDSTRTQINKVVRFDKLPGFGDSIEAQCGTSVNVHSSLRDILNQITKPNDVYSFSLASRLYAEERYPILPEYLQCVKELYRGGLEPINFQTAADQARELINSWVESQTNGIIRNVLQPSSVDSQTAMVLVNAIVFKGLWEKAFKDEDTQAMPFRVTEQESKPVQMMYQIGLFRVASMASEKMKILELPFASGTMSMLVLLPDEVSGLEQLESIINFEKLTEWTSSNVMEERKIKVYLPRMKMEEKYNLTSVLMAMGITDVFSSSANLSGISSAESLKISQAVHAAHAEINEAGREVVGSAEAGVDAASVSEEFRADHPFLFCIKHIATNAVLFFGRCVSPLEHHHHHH
Test: ELISA, plate coated with recombinant protein at 1 µg/mL, serial dilution of biotin-conjugated FcγR, streptavidin-HRP

B1: biotin-conjugated recombinant FcγRIIIa-V158 (receptor)
chain: not shown
notes: The V158 allotype name implies the human receptor
B1: no binding.
